Numbering of substitutions follows the chain as printed. Like-named read-outs stand apart in the source and are kept apart here. Blank lines part the entries; values can stand above or below the binder they belong to.
Legend:
[1] = biological target: T1, human BDCA-2 on cells (Jurkat-hBDCA-2 cells; human pDCs; human PBMCs) (human, UniProt Q8WTT0 1-213); test: cell-based or functional assay
T1 sequence (looked up): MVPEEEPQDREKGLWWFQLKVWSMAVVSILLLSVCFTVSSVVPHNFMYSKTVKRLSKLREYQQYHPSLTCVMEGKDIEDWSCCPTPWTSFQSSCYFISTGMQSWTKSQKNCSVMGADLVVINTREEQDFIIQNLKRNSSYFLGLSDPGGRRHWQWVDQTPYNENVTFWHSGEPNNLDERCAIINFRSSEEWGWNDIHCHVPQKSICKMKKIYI

[2] = biological target: T1, human BDCA-2 on cells (Jurkat-hBDCA-2 …); test: cell-based or functional assay; remark: listed apart in the source
[3] = biological target: T1, human BDCA-2 on cells (Jurkat-hBDCA-2 …); test: flow cytometry on Jurkat-hBDCA-2 cells
[4] = biological target: T2, cynomolgus monkey BDCA-2 on cells (Jurkat-cynoBDCA-2 cells; cynomolgus monkey pDCs) (cynomolgus monkey, UniProt A0A2K5UWP4 1-212); test: flow cytometry on Jurkat-cynoBDCA-2 cells
T2 construct: whole, on cells
T2 sequence: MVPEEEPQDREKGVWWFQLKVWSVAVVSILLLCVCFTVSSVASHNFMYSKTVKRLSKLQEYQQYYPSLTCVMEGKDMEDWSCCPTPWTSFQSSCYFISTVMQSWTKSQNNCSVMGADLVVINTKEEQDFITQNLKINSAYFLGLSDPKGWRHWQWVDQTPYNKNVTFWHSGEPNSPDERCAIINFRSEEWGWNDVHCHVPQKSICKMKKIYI

[5] = biological target: T3, Human BDCA-2 protein (soluble, Octet analyte) (human, UniProt Q8WTT0 45-213, limits assumed); test: BLI (Octet Red96e), antibody on anti-human IgG sensor, human BDCA-2 protein in solution
T3 construct: Soluble protein used as analyte in BLI
T3 sequence (looked up): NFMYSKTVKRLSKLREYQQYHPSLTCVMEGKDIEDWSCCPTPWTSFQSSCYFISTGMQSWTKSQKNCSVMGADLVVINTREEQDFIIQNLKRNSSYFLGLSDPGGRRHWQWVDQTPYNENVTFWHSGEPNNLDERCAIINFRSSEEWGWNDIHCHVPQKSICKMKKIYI

[6] = biological target: T1, human BDCA-2 on cells (Jurkat-hBDCA-2 …); test: cell-based or functional assay; remark: listed apart in the source
[7] = biological target: T1, human BDCA-2 on cells (Jurkat-hBDCA-2 …); test: cell-based or functional assay; remark: listed apart in the source
[8] = biological target: T1, human BDCA-2 on cells (Jurkat-hBDCA-2 …); test: flow cytometry on sorted human pDCs
[9] = biological target: T1, human BDCA-2 on cells (Jurkat-hBDCA-2 …); test: flow cytometry on Jurkat-hBDCA-2 cells; remark: listed apart in the source
[10] = biological target: T2, cynomolgus monkey BDCA-2 on cells …; test: flow cytometry on Jurkat-cynoBDCA-2 cells; remark: listed apart in the source
[11] = biological target: T3, Human BDCA-2 protein (soluble, Octet …); test: BLI (Octet Red96e), antibody on anti-human IgG sensor, human BDCA-2 protein in solution; remark: listed apart in the source
[12] = biological target: T4, cynomolgus monkey BDCA-2 protein (acro, CLC-C52H4) (cynomolgus monkey, UniProt A0A2K5UWP4 45-212); test: BLI (Octet Red96e), antibody on anti-human IgG sensor, cynomolgus monkey BDCA-2 protein in solution
T4 construct: Bought soluble protein; also called cyno BDCA-2
T4 sequence: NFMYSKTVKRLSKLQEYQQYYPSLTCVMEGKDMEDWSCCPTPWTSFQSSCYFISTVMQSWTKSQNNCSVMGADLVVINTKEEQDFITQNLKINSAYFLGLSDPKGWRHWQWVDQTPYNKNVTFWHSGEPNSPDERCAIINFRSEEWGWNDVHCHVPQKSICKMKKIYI

[13] = biological target: T1, human BDCA-2 on cells (Jurkat-hBDCA-2 …); test: cell-based or functional assay; remark: listed apart in the source

EC50, inhibition of CpGA-induced type I interferon (IFNα) production in human PBMC cells [1]: 0.0011 µg/mL | EC50, inhibition of immune complex-induced type I interferon (IFNα) in human pDC cells [2]: 3.6 ng/mL | EC50 [3]: 0.215 µg/mL | EC50 [4]: 0.21 µg/mL | Kd [5]: 2.17 nM | koff [5]: 0.000338 s⁻¹ | kon [5]: 156000 M⁻¹ s⁻¹
B1: 164C11B8_hIgG1 (chimeric antibody) (antibody)
heavy: DVILVESGGGLVKPGGSLKLSCAASGITFSTYTMSWLRQTPEKRLEWVATINSGGDNTYYPDSVKGRFTISRDNAKNNLYLQMSSLKSEDTALYYCATYRPYYYGSVLDYWGQGTTLTVSS[sequence of human IgG1 constant region omitted]
light: DIVLTQSPASLAVSLGQRATISCKASQSVDYDGNSYVNWYQQKPGQPPKLLIYGASNLESGIPDRFSGSGSGTDFTLNIHPVEEEDGATYYCQQSDEDPWTFGGGTKLEIRRTVAAPSVFIFPPSDEQLKSGTASVVCLLNNFYPREAKVQWKVDNALQSGNSQESVTEQDSKDSTYSLSSTLTLSKADYEKHKVYACEVTHQGLSSPVTKSFNRGEC
notes: Mouse variable regions on human IgG1/kappa; also called 164C11B8 chimeric antibody; Chimeric antibody 164C11B8

EC50, inhibition of CpGA-induced type I interferon (IFNα) production in human PBMC cells [6]: 0.001 µg/mL | EC50, inhibition of immune complex-induced type I interferon (IFNα) production by human pDC cells [7]: 0.9 ng/mL | EC50 [8]: 0.0776 µg/mL | EC50 [9]: 0.0311 µg/mL | EC50 [10]: 0.0533 µg/mL | Kd [11]: 4.4 nM | koff [11]: 0.00049 s⁻¹ | kon [11]: 111000 M⁻¹ s⁻¹ | Kd [12]: 5.7 nM | koff [12]: 0.00067 s⁻¹ | kon [12]: 120000 M⁻¹ s⁻¹
B2: 17G6A2_hzH1L5_hIgG1 (antibody)
heavy: EVQLVESGGGLVKPGGSLRLSCAASGFTFSSYGMSWVRQAPGKGLEWVSTISSGDSYTYYPDSVKGRFTISRDNAKNSLYLQMNSLRAEDTAVYYCARQLYYSYGYYFDYWGQGTTVTVSS[sequence of human IgG1 constant region omitted]
light: DIVLTQSPASLAVSPGQRATITCRASESVSFHGTHLMHWYQQKPGQPPKLLIYAASNLESGVPARFSGSGSGTDFTLTINPVEAEDTANYYCQQSIEDPPTFGGGTKVEIKRTVAAPSVFIFPPSDEQLKSGTASVVCLLNNFYPREAKVQWKVDNALQSGNSQESVTEQDSKDSTYSLSSTLTLSKADYEKHKVYACEVTHQGLSSPVTKSFNRGEC
notes: Humanized, human IgG1/kappa (hzVH01 + hzVL05); also called 17G6A2_hzH11L5_hIgG1; 17G6A2 humanized antibody

EC50, inhibition of CpGA-induced type I interferon (IFNα) production in human PBMC cells [1]: 0.0013 µg/mL | EC50, inhibition of immune complex-induced type I interferon (IFNα) in human pDC cells [13]: 29.2 ng/mL | EC50 [3]: 0.0877 µg/mL | EC50 [4]: 0.0792 µg/mL | Kd [5]: 0.519 nM | koff [5]: 0.000142 s⁻¹ | kon [5]: 274000 M⁻¹ s⁻¹ | Kd [11]: 1.4 nM | koff [11]: 0.000263 s⁻¹ | kon [11]: 194000 M⁻¹ s⁻¹
B3: 17G6A2_hIgG1 (chimeric antibody) (antibody)
heavy: EVQLVESGGDLVKPGGSLKLSCAASGFTFSSYGMSWVRQTPDKRLEWVATISSGDSYTYYPDSVKGRFTISRDNAKNTLYLQMSSLKSEDTAMYYCARQLYYSYGYYFDYWGQGTTLTVSS[sequence of human IgG1 constant region omitted]
light: B2 light with P15L, T22S, G72E, T78N, N80H, A84E, T87A, N89T, Y91F, V108L
notes: Mouse variable regions on human IgG1/kappa; also called 17G6A2 chimeric antibody; Chimeric antibody 17G6A2
